# Laboratory results: the supplement of paper PMC3334620
# Whole data set: some 33,000 sequences, median “E-score (-0.5 to 0.5)” near -0.054, cut for the highest 2% near 0.39. The list shows a part of the results.
# Target: Ylr278c (UniProt Q05854)
# Assay: PBM E-score (8-mer binding enrichment) (E-score (-0.5 to 0.5)); higher = stronger / more preferred TF binding; most listed sequences are background and not binding sites
# Details: protein concentration: 200 nM; construct: GST-DNA-binding domain
# Outline: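 Universal all-10-mer Agilent arrays, double-stranded by primer extension on fresh or once-stripped slides, were probed with about 100-200 nM GST-tagged yeast transcription factors made by PURExpress. Fluorescent anti-GST detected bound protein, and masliner normalised the scans. E-scores from the Universal PBM Analysis Suite were given to each ungapped eight-base word pooled with its reverse complement.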
row,Sequence,PBM E-score
1,GGACGAAC,0.194
2,CCGAATAC,0.362
3,AAATAATG,0.0558
4,GCTAAGCA,-0.0726
5,CGTTGTAA,-0.155
6,ACCCTGGC,-0.139
7,GTAAGATA,0.0391
8,ATATGGTA,-0.134
9,AACGTAGT,-0.182
10,CACATTGA,-0.0599
11,GATCACAA,0.0765
12,ATATACAA,0.00765
13,TATCAAAA,-0.109
14,ACTACATC,-0.0979
15,CTCGTCAC,-0.0383
16,CAACTTTA,-0.126
17,GAAACGGC,0.0334
18,CCAAGCAC,-0.173
19,GCCCGAGA,0.173
20,GCATGGCA,0.0442
21,CACCGCAC,0.0456
22,GCGAAACC,0.169

row,Sequence,PBM E-score
1,ACGGGTAA,-0.0191
2,CAGCTTGG,-0.129
3,CTAACCTC,-0.0434
4,GAGGCCCC,0.0722
5,AGGCCCAT,-0.14
6,AAAGGAAC,-0.0358
7,GCGCCCAA,0.0697
8,TCTATAGA,-0.251
9,CCGAGAGC,0.286
10,ATTAGCAA,-0.0899
11,AAAGGTTA,-0.262
12,ACCGCCGC,0.235
13,ACCGCGTC,0.0891
14,TATCGTAA,-0.0239
15,AAAAGCAG,-0.219
16,GGTGATAC,0.019
17,ATAAGGAC,-0.218
18,CAACGGTA,-0.128
19,ACACGTGC,-0.0663
20,ACGGGAGC,0.0238
21,CACAGCAG,-0.225
22,CCAGATGA,-0.219

row,Sequence,PBM E-score
1,TAGGTCCA,-0.188
2,TATCTTAA,-0.0995
3,ATTATCAC,-0.0528
4,AATACGTA,-0.0884
5,CATGAACG,-0.14
6,AGTCTCAC,-0.176
7,GGGGGCGA,-0.0618
8,CTGCGTAC,-0.255
9,CCCAAGCC,-0.0262
10,AATCGATT,-0.13
11,CAGCCACA,-0.232
12,CTGGCACC,-0.0937
13,ACCTGCGT,0.0415
14,CGCATACG,0.135
15,CCTTAAGG,-0.061
16,GGGTTGAA,-0.0507
17,ATCAGTCC,0.00653
18,CGCTAGGA,-0.0719
19,GAAGTAGC,0.0122
20,AACCACAT,-0.128
21,GATGGGGA,8e-05
22,GTGGCCAA,-0.277

row,Sequence,PBM E-score
1,GGCCTTTA,-0.0232
2,GGGAATCA,-0.0137
3,CAAAGCCG,0.166
4,TAAAGGCA,-0.131
5,ACAAAAGT,-0.177
6,AAGGGACG,-0.173
7,CGAGTAGA,-0.143
8,ACAAAATC,0.0672
9,ACTTGATG,-0.0136
10,CAGCGCCG,0.318
11,CCCCTTCG,-0.0951
12,GCACATAA,-0.172
13,CCAGGTAC,-0.236
14,AACCTGCC,-0.16
15,CGGAGAAA,0.477
16,CAGCAGAC,-0.0889
17,CCGTGTCC,0.244
18,ACGTATCA,-0.117
19,CCAGGTAA,-0.0658
20,AACTAATA,0.154
21,TAGAGTAA,-0.0135
22,AGATCAAG,-0.188

row,Sequence,PBM E-score
1,AAGGTTCG,0.08
2,GTTGGCAA,-0.148
3,TATGTGAA,-0.341
4,GCCTAACC,-0.106
5,CAAAGTCC,0.307
6,CGGTTCCC,0.192
7,CTCCAGAC,-0.092
8,GGGACAAA,0.0323
9,TAGGTTAA,-0.0815
10,CAACCGCC,0.0973
11,CTTATGTC,0.00842
12,TCCGTTAA,0.324
13,AAGCGCTT,0.178
14,CCGTATAC,0.0174
15,CCGAGACA,0.153
16,ATCCGGTG,0.408
17,CATGGCCC,0.0406
18,CTATAGCC,-0.192
19,CGGTGCAC,0.0386
20,ACTATTCA,-0.08
21,AGAGCTAC,-0.107
